Results on 48 compounds are retold here after article PMC6919601, “Identification of Plasmodium dipeptidyl aminopeptidase allosteric inhibitors by high throughput screening” (PLoS ONE, 2019).

Screen size: about 110,000 compounds; about 230 (0.21%) showed an effect of 50% or more. The list shows a part of the results.
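Note: 30 min substrate incubation versus DMSO and 10 µM JCP410 controls.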

DPAP1, sequence (Q8IIJ9 whole entry, looked up): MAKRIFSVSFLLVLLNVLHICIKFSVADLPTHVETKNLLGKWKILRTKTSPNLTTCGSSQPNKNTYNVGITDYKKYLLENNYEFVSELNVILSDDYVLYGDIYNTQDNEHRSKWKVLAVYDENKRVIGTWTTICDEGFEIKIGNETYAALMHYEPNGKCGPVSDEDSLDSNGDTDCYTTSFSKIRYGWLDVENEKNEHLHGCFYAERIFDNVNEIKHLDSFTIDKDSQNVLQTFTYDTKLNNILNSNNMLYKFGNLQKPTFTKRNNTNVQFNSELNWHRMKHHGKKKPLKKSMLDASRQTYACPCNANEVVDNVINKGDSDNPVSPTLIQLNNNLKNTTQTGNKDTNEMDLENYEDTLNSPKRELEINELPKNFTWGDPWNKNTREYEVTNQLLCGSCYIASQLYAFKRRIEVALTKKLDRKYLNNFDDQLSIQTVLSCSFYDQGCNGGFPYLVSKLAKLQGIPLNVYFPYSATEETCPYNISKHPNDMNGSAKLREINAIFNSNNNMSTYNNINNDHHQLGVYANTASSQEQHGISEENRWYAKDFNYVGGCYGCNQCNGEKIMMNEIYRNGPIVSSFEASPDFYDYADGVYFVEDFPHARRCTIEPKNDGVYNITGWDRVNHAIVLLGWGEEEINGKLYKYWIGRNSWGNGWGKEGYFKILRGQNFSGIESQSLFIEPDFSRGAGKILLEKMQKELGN

The experiment concerns the target DPAP1 (Plasmodium falciparum, UniProt Q8IIJ9). The experiment in a line: primary screen, percent inhibition; read by cleavage of a fluorogenic dipeptide substrate; higher = more effect of the substance. Also on record: species or system P. falciparum D10 trophozoite lysates; single well.
As for `COC(=O)c1c(C)sc2c1OC(N)=C(C#N)C2c1cccc(OC)c1OC` (stereo not drawn), the “% Inhibition @ 10 uM” value came out at 2.99%.

Turning to `O=C(C1CCCN(S(=O)(=O)c2ccc(Br)s2)C1)N1CCCCCC1` (stereo not drawn), the “% Inhibition @ 10 uM” value was found to be 5.19%.

Take `CN(C)c1ccc(/C=C(\C#N)c2nc(-c3cc4ccccc4oc3=O)cs2)cc1`: the “% Inhibition @ 10 uM” value is 2.54%.

As to `O=C(Nc1ccccc1C(=O)O)c1cccc(C(=O)Nc2ccccc2C(=O)O)c1`, the “% Inhibition @ 10 uM” value came out at 21.7%.

Regarding `CCOc1ccc(-c2nnc3ccc(SCC(=O)Nc4nnc(C)s4)nn23)cc1`, the “% Inhibition @ 10 uM” value worked out at 3.54%.

In the case of `Cc1[nH]nc(N)c1-c1ccc(Cl)cc1`, the “% Inhibition @ 10 uM” value is reported as -3.35%.

As to `O=[N+]([O-])c1ccc(CNc2ccc(Cl)cc2)s1`, the “% Inhibition @ 10 uM” value is -3.35%.

For the compound `COc1ccc2cc3cc(C(=O)O)sc3nc2c1`, the “% Inhibition @ 10 uM” value is 5.12%.

On to `COc1ccc(Cn2c(CCC(=O)N3CCOCC3)nc3cccnc32)cc1`, for which the “% Inhibition @ 10 uM” value came to 0.66%.

For `CCCSc1nnc2n(CCC)c3c(c(=O)n12)C(C)(C)Cc1ccccc1-3`, the “% Inhibition @ 10 uM” value is on record as -1.18%.

Consider `COc1ccc2c(CNCc3ccc(C)o3)c(C(=O)O)n(Cc3ccc(C)cc3)c2c1`, for which the “% Inhibition @ 10 uM” value is reported as -0.712%.

`O=C(Nc1cccc(O)c1)c1ccc2c(c1)C(=O)N(c1ccccn1)C2=O`: the “% Inhibition @ 10 uM” value was -2.63%.

Turning to `CCc1c(C)sc(NC(=O)CCCOc2ccc(Cl)cc2Cl)c1C(N)=O`, the “% Inhibition @ 10 uM” value is on record as -9.33%.

On to `O=C1NC(=O)C2C1Sc1nc(O)sc1C2c1ccco1` (stereo not drawn), for which the “% Inhibition @ 10 uM” value is on record as 3.73%.

As to `CC(C)CCNC(=O)c1cn(C2CCCC2)c(=O)c2c1c1ccccc1n2C`, the “% Inhibition @ 10 uM” value was found to be 1.85%.

With `COc1ccc(C2c3c(oc4cc(C)c(C)cc4c3=O)C(=O)N2c2ccc(C)cn2)cc1OC` (stereo not drawn), the “% Inhibition @ 10 uM” value is -6.94%.

For the compound `COC(=O)C1=C(C)N=c2s/c(=C/c3ccc4c(c3)OCO4)c(=O)n2C1/C=C/c1ccccc1` (stereo not drawn), the “% Inhibition @ 10 uM” value was 0.279%.

As to `CCOC(=O)c1oc2c(CN3CCN(C)CC3)c(O)ccc2c(=O)c1-c1ccccc1OC`, the “% Inhibition @ 10 uM” value is -1.11%.

As for `O=C(NCCN1CCOCC1)c1nn2c(C(F)(F)F)cc(-c3ccccc3)nc2c1Cl`, the “% Inhibition @ 10 uM” value is given as 8.74%.

For the compound `CCSc1ncnc2sc3c(c12)CCC(C)C3` (stereo not drawn), the “% Inhibition @ 10 uM” value is on record as -6.44%.

Turning to `Cc1cc(C)n(-c2nc3ccccc3nc2N2CCN(C(=O)c3ccc(Cl)cc3)CC2)n1`, the “% Inhibition @ 10 uM” value was found to be 0.032%.

Take `COCCN1C(=O)c2[nH]nc(-c3c(C)cc(C)cc3O)c2C1c1cccc(OC)c1` (stereo not drawn): the “% Inhibition @ 10 uM” value is 9.21%.

As for `Cc1ccc(Cn2nnc3c(O)nc(C4CCN(C(=O)OC(C)(C)C)CC4)nc32)cc1`, the “% Inhibition @ 10 uM” value is on record as 2.21%.

`COC(=O)Nc1c(C)nc2n(C)c3ccccc3n12`: the “% Inhibition @ 10 uM” value is given as 3.27%.

Consider `Cc1occc1C(=O)O/N=C(\N)c1ccccn1`, for which the “% Inhibition @ 10 uM” value is on record as 0.884%.

For the compound `CCCn1nc(NC(=O)c2cccc(Cl)c2)c2cc3ccccc3nc21`, the “% Inhibition @ 10 uM” value was -0.671%.

Turning to `Cc1nc2nc(C)c(CCC(=O)N3CCCC3)c(C)n2n1`, the “% Inhibition @ 10 uM” value came to 4.54%.

As for `CC1CCC(N2CCCC2CO)CC1` (stereo not drawn), the “% Inhibition @ 10 uM” value was determined as 2.99%.

As for `CCOC(=O)c1[nH]c(C(=O)O)c(CCN(CC)CC)c1C`, the “% Inhibition @ 10 uM” value came to 6.12%.

Turning to `Cc1cccc(NC(=O)C2C(=O)N(C)C3(C)CC2c2ccccc2O3)c1` (stereo not drawn), the “% Inhibition @ 10 uM” value is on record as 5.07%.

For `CCOP(=S)(OCC)C(Nc1ccccc1)c1ccccc1` (stereo not drawn), the “% Inhibition @ 10 uM” value is -2.12%.

Consider `CCOCCCNC(=O)CCc1nnc2n(Cc3ccccc3)c(=O)c3ccccc3n12`, for which the “% Inhibition @ 10 uM” value is recorded as 0.981%.

For `COc1ccc(NC(=O)c2sc3nc4c(cc3c2N)CC(C)CC4)cc1` (stereo not drawn), the “% Inhibition @ 10 uM” value turned out to be 2.82%.

In the case of `O=C(CCC(=O)N1CCSc2ncccc21)NCc1cccc(Cl)c1`, the “% Inhibition @ 10 uM” value was -1.6%.

Regarding `CCOC(=O)N1CCC(Nc2nc3ccccc3n3cnnc23)CC1`, the “% Inhibition @ 10 uM” value was -4.21%.

With `CCOc1ccc(N2CC(C(=O)Nc3ccccn3)CC2=O)cc1` (stereo not drawn), the “% Inhibition @ 10 uM” value worked out at 2.95%.

`CCOC(=O)c1sc(N2N=C(C)/C(=C\c3cc4c(cc3Br)OCO4)C2=O)nc1C`: the “% Inhibition @ 10 uM” value was determined as 0.884%.

Take `Cc1nc2c(C(=O)NC3CCCCC3)cnn2c(C)c1Cc1ccccc1`: the “% Inhibition @ 10 uM” value was -2.14%.

As for `COC(=O)c1ccc2[nH]c(SCc3cccc(C)c3)nc2c1`, the “% Inhibition @ 10 uM” value is 3.3%.

On to `COc1ccccc1/C=C/c1nn2c(C)nnc2s1`, for which the “% Inhibition @ 10 uM” value was determined as 2.29%.

For `Cc1sc2c(c1C)c(=O)n(CCc1ccccc1)c(=O)n2CC(=O)NCCC1=CCCCC1`, the “% Inhibition @ 10 uM” value is -5.88%.

On to `Cc1ccc(-n2nc(C)c3c(C(=O)Nc4nc(C)cs4)cc(C)nc32)cc1`, for which the “% Inhibition @ 10 uM” value is listed as -3.13%.

Consider `CCN1CCC(C#N)(NC(=O)[C@H](Cc2c(F)cccc2F)NC(=O)c2ccc(-c3ccccc3Cl)nc2)CC1`, for which the “% Inhibition @ 10 uM” value is listed as 4.33%.

Turning to `CC(=O)Nc1cc2nn(-c3ccccc3)nc2cc1Cl`, the “% Inhibition @ 10 uM” value was determined as 2.44%.

For the compound `CC1(C)CC2CC(C)(CN2C(=O)c2cnn3c2NC(c2cccs2)CC3C(F)(F)F)C1` (stereo not drawn), the “% Inhibition @ 10 uM” value is given as -7.02%.

On to `NS(=O)(=O)c1ccc(CCNC(=O)CCC(=O)N2Cc3ccccc3Oc3ncccc32)cc1`, for which the “% Inhibition @ 10 uM” value is -2.62%.

Turning to `CCOC(=O)N1CCC(NC(=O)Cn2cc3c(n2)CCC(C)C3)CC1` (stereo not drawn), the “% Inhibition @ 10 uM” value is -3.35%.

With `CC1=C(C(=O)Nc2ccccc2)C(c2ccccc2Cl)n2ncnc2N1` (stereo not drawn), the “% Inhibition @ 10 uM” value is reported as -16.5%.
